Assay results published in paper PMC11911400, “Mechanism of ASF1 engagement by CDAN1” (Nature Communications, 2025).
These are yes or no findings as the source states them, for the method shown. In cells and extracts the contact can be indirect. Some results given as binding are weak or reduced against the parent protein; the word gives no strength. Tags and fused reporters may be left off the sequences shown.

The chains behind the UniProt entries cited, without tags or fusion partners.
UniProt Q9Y294: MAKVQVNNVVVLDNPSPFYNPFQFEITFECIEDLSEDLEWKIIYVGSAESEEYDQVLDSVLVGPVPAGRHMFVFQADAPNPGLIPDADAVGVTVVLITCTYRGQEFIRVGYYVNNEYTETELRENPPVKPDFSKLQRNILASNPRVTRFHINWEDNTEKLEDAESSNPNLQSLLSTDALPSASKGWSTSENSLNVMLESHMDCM
UniProt Q9NVP2: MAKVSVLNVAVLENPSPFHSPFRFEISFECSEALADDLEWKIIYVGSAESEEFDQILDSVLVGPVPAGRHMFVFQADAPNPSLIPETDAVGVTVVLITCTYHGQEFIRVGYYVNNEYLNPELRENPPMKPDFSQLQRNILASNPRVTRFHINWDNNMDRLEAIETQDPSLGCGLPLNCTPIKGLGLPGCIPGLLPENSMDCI

Tests used:
[1] = target: T1, endogenous CDIN1 with a C-terminal HaloTag-FLAG (HF) tag (human (endogenous in Flp-In 293 T-REx)) (UniProt Q9Y2V0); assay: co-IP; anti-FLAG M2 agarose IP of endogenously HaloTag-FLAG tagged CDAN1 or CDIN1 from Flp-In 293 T-REx lysates; IP buffer 50 mM HEPES pH 7.5, 100 mM KOAc, 2.5 Mg(OAc)2, 1% Triton X-100, 1 mM DTT; immunoblotting
T1 sequence: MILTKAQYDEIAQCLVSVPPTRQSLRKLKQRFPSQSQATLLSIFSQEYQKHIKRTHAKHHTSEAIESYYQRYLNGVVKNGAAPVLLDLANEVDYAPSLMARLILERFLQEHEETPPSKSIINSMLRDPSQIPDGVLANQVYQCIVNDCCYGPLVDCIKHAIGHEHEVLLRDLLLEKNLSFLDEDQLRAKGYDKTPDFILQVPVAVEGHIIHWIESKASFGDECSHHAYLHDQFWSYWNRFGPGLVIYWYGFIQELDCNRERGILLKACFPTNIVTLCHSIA

[2] = target: T2, FLAG-tagged CDIN1 (F-CDIN1) (UniProt Q9Y2V0); assay: co-IP; anti-FLAG IP (first step of the tandem purification) from lysates of transiently transfected Expi293 cells; IP buffer with 1% Triton X-100, 4 °C; elution with 3xFLAG peptide; immunoblotting
T2 sequence: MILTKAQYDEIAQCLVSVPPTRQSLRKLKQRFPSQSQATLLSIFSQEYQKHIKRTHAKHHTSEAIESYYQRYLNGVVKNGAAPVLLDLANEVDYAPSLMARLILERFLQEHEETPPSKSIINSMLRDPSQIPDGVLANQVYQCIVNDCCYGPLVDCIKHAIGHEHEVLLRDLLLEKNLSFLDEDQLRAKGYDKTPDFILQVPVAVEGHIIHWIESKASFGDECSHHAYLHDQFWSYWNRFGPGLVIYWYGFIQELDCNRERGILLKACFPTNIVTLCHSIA

[3] = target: T3, Strep-tagged CDAN1 (ST-CDAN1), wildtype (human, UniProt Q8IWY9 1-1227); assay: pull-down; Strep-Tactin pulldown of transiently transfected ST-CDAN1 variants from Flp-In 293 T-REx lysates; endogenous ASF1A, ASF1B and CDIN1 detected by immunoblotting; IP buffer with 1% Triton X-100, 1 hr at 4 °C
T3 construct: Codanin-1 (CDAN1), human, 1227 residues; cDNA from Horizon Discovery/Dharmacon, its point mutation S421F corrected; same construct used in Expi293 and in Flp-In 293 T-REx cells; dimer by SEC-MALS and cryo-EM; also called Strep-CDAN1; WT CDAN1; source: Expi293, transiently transfected, in lysate and purified in complexes (anti-FLAG, Strep-Tactin); Flp-In 293 T-REx, transiently transfected, in …
T3 sequence: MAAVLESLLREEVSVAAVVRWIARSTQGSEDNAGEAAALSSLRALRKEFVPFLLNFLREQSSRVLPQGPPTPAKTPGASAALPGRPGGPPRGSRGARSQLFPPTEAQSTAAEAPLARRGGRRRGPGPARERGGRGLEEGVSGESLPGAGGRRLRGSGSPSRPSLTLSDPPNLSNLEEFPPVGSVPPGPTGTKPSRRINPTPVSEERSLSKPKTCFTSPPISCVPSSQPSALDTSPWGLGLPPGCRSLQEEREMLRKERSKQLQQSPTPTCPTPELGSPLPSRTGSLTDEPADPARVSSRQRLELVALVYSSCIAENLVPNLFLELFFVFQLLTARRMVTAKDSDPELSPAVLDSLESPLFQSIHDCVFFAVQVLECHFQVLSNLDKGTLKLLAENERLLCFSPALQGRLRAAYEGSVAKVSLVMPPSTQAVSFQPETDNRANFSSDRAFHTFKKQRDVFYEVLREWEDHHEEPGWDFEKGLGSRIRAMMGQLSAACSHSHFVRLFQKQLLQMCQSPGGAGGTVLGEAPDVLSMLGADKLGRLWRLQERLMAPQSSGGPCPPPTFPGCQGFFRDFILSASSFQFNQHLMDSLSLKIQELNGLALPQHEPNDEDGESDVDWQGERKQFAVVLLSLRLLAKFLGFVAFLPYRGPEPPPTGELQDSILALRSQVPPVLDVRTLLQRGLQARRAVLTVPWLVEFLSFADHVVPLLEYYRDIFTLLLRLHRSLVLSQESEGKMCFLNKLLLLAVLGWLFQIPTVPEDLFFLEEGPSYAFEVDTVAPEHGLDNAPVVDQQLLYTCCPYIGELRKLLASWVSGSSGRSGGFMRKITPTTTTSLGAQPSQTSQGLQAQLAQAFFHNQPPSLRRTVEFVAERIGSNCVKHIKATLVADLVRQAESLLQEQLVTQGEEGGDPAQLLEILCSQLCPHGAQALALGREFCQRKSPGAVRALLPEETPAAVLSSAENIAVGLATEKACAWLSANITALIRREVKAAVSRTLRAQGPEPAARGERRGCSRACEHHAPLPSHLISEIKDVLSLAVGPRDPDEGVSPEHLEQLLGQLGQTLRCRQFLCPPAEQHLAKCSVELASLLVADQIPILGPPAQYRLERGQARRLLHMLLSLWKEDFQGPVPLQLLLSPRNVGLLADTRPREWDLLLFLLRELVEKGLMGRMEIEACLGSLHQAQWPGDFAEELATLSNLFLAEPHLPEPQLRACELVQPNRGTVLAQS

Molecule: endogenous ASF1A (from UniProt Q9Y294 1-204)
- binding [1]: binds
- binding [2]: binds
- binding [3]: binds

Molecule: endogenous ASF1B (from UniProt Q9NVP2 1-202)
- binding [1]: binds
- binding [3]: binds

B1: FLAG-tagged CDIN1 (F-CDIN1) (natural protein, UniProt Q9Y2V0 1-281, looked up)
chain: MILTKAQYDEIAQCLVSVPPTRQSLRKLKQRFPSQSQATLLSIFSQEYQKHIKRTHAKHHTSEAIESYYQRYLNGVVKNGAAPVLLDLANEVDYAPSLMARLILERFLQEHEETPPSKSIINSMLRDPSQIPDGVLANQVYQCIVNDCCYGPLVDCIKHAIGHEHEVLLRDLLLEKNLSFLDEDQLRAKGYDKTPDFILQVPVAVEGHIIHWIESKASFGDECSHHAYLHDQFWSYWNRFGPGLVIYWYGFIQELDCNRERGILLKACFPTNIVTLCHSIA
notes: C15orf41); cDNA synthesized by IDT; source: Expi293, transiently transfected, in lysate and purified in complexes (anti-FLAG, Strep-Tactin); not shown: 3xFLAG, N-terminal, kept
- binding [2]: binds
